Test results from patent publication US20090263375A1 (WISCONSIN ALUMNI RESEARCH FOUNDATION, published 2009).

Molecular target: T1, His-Star-PAP (full length His-tagged Speckle Targeting and PIPKIα Regulated Poly(A) Polymerase) (human, UniProt Q9H6E5 1-874)
T1 construct: Full length; also called His-tagged Star-PAP; not shown: His tag from the pET28 vector
T1 sequence: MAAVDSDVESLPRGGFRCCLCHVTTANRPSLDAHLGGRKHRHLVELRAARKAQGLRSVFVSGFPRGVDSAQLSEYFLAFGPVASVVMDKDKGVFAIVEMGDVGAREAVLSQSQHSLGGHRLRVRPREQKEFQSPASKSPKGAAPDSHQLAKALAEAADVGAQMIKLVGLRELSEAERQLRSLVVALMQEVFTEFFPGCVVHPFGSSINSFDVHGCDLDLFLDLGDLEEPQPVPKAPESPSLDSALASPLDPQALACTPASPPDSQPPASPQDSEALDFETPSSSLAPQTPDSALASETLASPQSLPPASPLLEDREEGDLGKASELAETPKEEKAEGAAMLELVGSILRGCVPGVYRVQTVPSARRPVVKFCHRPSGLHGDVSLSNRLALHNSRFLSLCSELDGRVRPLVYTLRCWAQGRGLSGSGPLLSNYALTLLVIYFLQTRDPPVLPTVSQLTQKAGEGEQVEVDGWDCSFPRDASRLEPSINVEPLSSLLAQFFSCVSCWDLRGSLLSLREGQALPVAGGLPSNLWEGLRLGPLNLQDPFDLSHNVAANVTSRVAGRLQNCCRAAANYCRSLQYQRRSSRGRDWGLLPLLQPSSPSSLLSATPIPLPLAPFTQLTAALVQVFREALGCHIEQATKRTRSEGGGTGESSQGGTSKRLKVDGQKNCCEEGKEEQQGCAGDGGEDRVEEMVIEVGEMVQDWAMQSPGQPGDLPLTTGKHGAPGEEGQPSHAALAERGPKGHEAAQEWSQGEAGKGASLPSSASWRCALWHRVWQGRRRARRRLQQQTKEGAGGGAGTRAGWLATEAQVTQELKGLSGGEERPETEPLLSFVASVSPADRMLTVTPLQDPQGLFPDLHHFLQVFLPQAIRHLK
Assay: in vitro GST pulldown

binding result: no binding
B1: GST alone (other)
chain: not shown
notes: Negative control of the GST pulldown
